For assay [1], the target named is T1, human c-fms, full length, on cells (human, UniProt P07333 20-972). As to the kind of experiment: cell-based or functional assay.
Assay [2] deals with T2, cynomolgus monkey c-fms on primary bone marrow cells (cynomolgus monkey). The experiment in a line: cell-based or functional assay.
In assay [3] the target is T1, human c-fms, full length, on cells. The experiment in a line: cell-based or functional assay. This is another data set of the same source.
In assay [4] the target is T2, cynomolgus monkey c-fms on primary bone …. The experiment in a line: cell-based or functional assay. The source holds these as a separate data set.
Assay [5] deals with T3, monomeric human c-fms (residues 1-512)-pHis (human, UniProt P07333 fragment).
T3 construct: Construct stated as residues 1-512; signal stated as amino acids 1-19 and left out; also called human c-fms (1-512).pHIS; monomeric c-fms
As to the kind of experiment: Biacore, low resolution; hybridoma mAb captured on anti-human IgG, monomeric c-fms-pHis analyte at 125 nM. Here is the method:
Anti-human IgG was immobilized on all four flow cells of a sensor chip using amine coupling. Crude hybridoma samples were diluted into halves and captured on the anti-IgG surface. […] Sequence lineage analyses were also performed on the 29 hybridomas (see, FIG. 2).
(SPR reads the build-up and loss of mass on a sensor chip optically.)

Read-outs that look alike come from different tables or passages of the source.

T1 sequence (P07333 20-972): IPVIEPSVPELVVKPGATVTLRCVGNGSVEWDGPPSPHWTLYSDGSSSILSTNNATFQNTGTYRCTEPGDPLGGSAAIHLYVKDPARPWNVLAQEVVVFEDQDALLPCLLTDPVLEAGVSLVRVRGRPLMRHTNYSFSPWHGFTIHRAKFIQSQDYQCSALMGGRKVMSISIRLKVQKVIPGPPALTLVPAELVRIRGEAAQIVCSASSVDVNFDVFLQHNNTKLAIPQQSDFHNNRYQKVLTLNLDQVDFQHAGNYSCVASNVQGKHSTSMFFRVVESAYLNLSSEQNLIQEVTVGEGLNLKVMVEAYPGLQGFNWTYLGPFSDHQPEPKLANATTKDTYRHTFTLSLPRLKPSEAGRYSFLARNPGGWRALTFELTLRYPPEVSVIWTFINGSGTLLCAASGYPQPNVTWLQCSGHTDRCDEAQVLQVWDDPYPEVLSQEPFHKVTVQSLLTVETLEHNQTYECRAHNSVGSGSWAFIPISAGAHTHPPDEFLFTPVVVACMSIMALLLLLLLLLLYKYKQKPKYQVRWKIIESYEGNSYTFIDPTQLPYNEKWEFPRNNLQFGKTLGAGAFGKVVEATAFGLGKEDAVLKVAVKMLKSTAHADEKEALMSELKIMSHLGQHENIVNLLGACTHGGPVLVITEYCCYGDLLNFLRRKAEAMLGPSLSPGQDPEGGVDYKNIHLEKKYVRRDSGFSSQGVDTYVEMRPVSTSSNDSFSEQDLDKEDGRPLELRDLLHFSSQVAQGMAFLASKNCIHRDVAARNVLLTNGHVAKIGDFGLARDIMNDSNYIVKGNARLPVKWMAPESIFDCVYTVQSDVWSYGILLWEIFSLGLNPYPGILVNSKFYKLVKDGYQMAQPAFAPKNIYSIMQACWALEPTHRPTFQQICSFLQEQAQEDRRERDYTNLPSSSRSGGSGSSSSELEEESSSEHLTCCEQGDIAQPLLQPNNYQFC

B1: anti-c-fms hybridoma antibody 1.39 (antibody, IgG1, V domains shown)
VH: [about 100 residues cut from this listing]EGPYSDYGYYYYGMDVWGQGTTVTVSS
VL: DIQMTQSPSSLSASVGDRVTITCQASQDISNYLNWYQQKPGKAPKVLIYDASNLETGVPSRFSGSGSGTDFTFTISSLQPEDIATYYCQQYDNLLTFGGGTKVEIK
notes: Hybridoma IgG1 (cohort 1); also called 1.39.3; 1.39.2
On to B1, for which, in assay [1], the “AML-5 bioassay IC50” value came to 27 pM and the “Human CD14+ monocytes bioassay IC50” value stood at 67 pM. Moreover, the “Cynomolgus bone marrow bioassay IC50” value in assay [2] was 67 pM. Also, in assay [3], the “AML-5 bioassay IC50” value is 4 ng/mL and the “Human CD14+ monocytes bioassay IC50” value stood at 10 ng/mL. Besides, the “Cynomolgus bone marrow bioassay IC50” value in assay [4] is 30 ng/mL. Moreover, in assay [5], the Kd (as a rule, the equilibrium constant for the complex coming apart) was determined as 5.4 nM; the off-rate (koff) (usually the rate constant with which the complex falls apart) was determined as 0.000608 s⁻¹; the kon (usually a measure of how fast the partners come together) stood at 113000 M⁻¹ s⁻¹.

B2: anti-c-fms hybridoma antibody 1.27 (antibody, IgG1, V domains shown)
VH: not shown
VL: DIQMTQSPSSLSASVGDRVTITCQASQDISNYLNWYQQKPGKAPKLLIYDASNLETGVPSRFSGSGSGTDFTFTISSLQPEDIATYYCQQYDNLLTFGGGTKVEIK
notes: Hybridoma IgG1 (cohort 1); also called 1.27.3; 1.27.2
Regarding B2, in assay [1], the “AML-5 bioassay IC50” value amounted to 73 pM and the “Human CD14+ monocytes bioassay IC50” value came to 200 pM. Besides, the “Cynomolgus bone marrow bioassay IC50” value in assay [2] was 933 pM. Moreover, in assay [3], the “AML-5 bioassay IC50” value was determined as 11 ng/mL and the “Human CD14+ monocytes bioassay IC50” value worked out at 30 ng/mL. The “Cynomolgus bone marrow bioassay IC50” value in assay [4] is 140 ng/mL. In assay [5], this molecule returned a Kd of 33 nM, a koff of 0.01 s⁻¹ and a kon of 299000 M⁻¹ s⁻¹.

B3: anti-c-fms hybridoma antibody 1.26 (antibody, IgG1, V domains shown)
VH: not shown
VL: DIQMTQSPSSLSASVGDRVTITCQASQDISNYLNWYQHKPGKAPKLLIYDASNLETGVPSRFSGSGSGTDFTFTISSLQPEDIATYYCQQYDNLLTFGGGTKVEIK
notes: Hybridoma IgG1 (cohort 1); also called 1.26.1
On to B3, for which, in assay [1], the “AML-5 bioassay IC50” value is 27 pM and the “Human CD14+ monocytes bioassay IC50” value came out at 13 pM. Besides, the “Cynomolgus bone marrow bioassay IC50” value in assay [2] amounted to 33 pM. Moreover, in assay [3], the “AML-5 bioassay IC50” value was 4 ng/mL and the “Human CD14+ monocytes bioassay IC50” value is 2 ng/mL. In addition, the “Cynomolgus bone marrow bioassay IC50” value in assay [4] turned out to be 5 ng/mL. In assay [5], the Kd stood at 11 nM, the koff worked out at 0.00263 s⁻¹ and the kon was 239000 M⁻¹ s⁻¹.

B4: anti-c-fms hybridoma antibody 1.34 (antibody, IgG1, V domains shown)
VH: not shown
VL: DIQMTQSPSSLSASVGDRVTITCQASQDISNYLNWYQQKPGKAPKLLIYDASNLETGVPSRFSGSGSGTDFTFTISSLQPEDIATYYCQQYDNLLTFGGGTKVEIK
notes: Hybridoma IgG1 (cohort 1)
On to B4, for which, in assay [5], binding was put at a Kd of 36 nM, the koff came to 0.0131 s⁻¹ and the kon is 365000 M⁻¹ s⁻¹.

B5: anti-c-fms hybridoma antibody 2.103 (antibody, IgG2, V domains shown)
VH: [about 100 residues cut from this listing]EYYHILTGSFYYSYYGMDVWGQGTTVTVSS
VL: DIQMTQSPSSLSASVGDRVTITCQASQDISNYLNWYQQRPGKAPKLLIYDASNLETGVPSRFSGSGSGTDFTFTISSLQPEDIATYYCQQYDNLLTFGGGTKVEIK
notes: Hybridoma IgG2 (cohort 2); also called 2.103.1; 2.103.3
Take B5: in assay [1], the “AML-5 bioassay IC50” value was found to be 53 pM and the “Human CD14+ monocytes bioassay IC50” value worked out at 133 pM. The “Cynomolgus bone marrow bioassay IC50” value in assay [2] is 27 pM. In assay [3], the “AML-5 bioassay IC50” value worked out at 8 ng/mL and the “Human CD14+ monocytes bioassay IC50” value is 20 ng/mL. Also, the “Cynomolgus bone marrow bioassay IC50” value in assay [4] came to 4 ng/mL. In addition, in assay [5], binding was put at a Kd of 4.8 nM, the off-rate (koff) is 0.000364 s⁻¹ and the kon worked out at 75100 M⁻¹ s⁻¹.

B6: anti-c-fms hybridoma antibody 1.144 (antibody, IgG1, V domains shown)
VH: not shown
VL: DIQMTQSPSSLSASVGDRVTITCQASQDISNYLNWYQHKPGKAPKLLIYDASNLETGVPSRFSGSGSGTDFTFTISSLQPEDIATYYCQQYDNLLTFGGGTKVEIK
notes: Hybridoma IgG1 (cohort 1); also called 1.144.1
On to B6, for which, in assay [5], binding was put at a Kd of 11 nM, the koff came out at 0.0025 s⁻¹ and the kon amounted to 230000 M⁻¹ s⁻¹.

For the origin of these results see patent US20090155164A1 (Amgen, published 2009).
